From PubChem BioAssay AID1345082 (National Center for Advancing Translational Sciences (NCATS), 2018)
“And” between values parts separate entries of the source, which are not always exact repeats. Equal entries are not always repeated. The campaign covered roughly 94,000 compounds. About 4,000 (4.3%) were called active. The shares of active, inactive and inconclusive entries below differ from those in the screen. Calls come from the whole dose curve; as a rule, active = well fitted inhibition curve with a large enough effect; inconclusive = small, poorly fitted or top-dose-only effect; inactive = no such curve, though single readings can be large or run the other way. Potencies of inconclusive entries are doubtful fits and often do not repeat.

Assay: Cytotoxic Profiling in NIH 3T3 Cell Line of Diverse Libraries Using Quantitative High-Throughput Screening; note: nearly all actives have a fitted effect of over 55% in size
Details: NIH 3T3 viability, CellTiter-Glo ATP luminescence, 48-72 h; series mostly up to 96.7 µM
In short: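 ATP-dependent luminescence (CellTiter-Glo) served as the viability signal for NIH 3T3 cells treated with compound for 48 or 72 hr at 37 °C.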
Potency is the fitted concentration of half-maximal effect; tags give direction and shape of the fitted curve.

Compound | Potency
Cc1ccc(C(=O)Nc2ccc3c(N4CCCCC4)ncnc3c2)s1 | inconclusive: 7.08 µM [inhibitor, full curve, poor fit]
COc1ccc(-n2nc(C)c(CCC(=O)N3CCOCC3)c2Oc2ccccc2F)cc1 | inconclusive: 50.1 µM [inhibitor, partial curve, poor fit]
COc1ccc(-c2ccc3c(c2)C(=O)N2CCN(C(=O)CC(C)(C)C)C[C@@H]2C(=O)N3)cc1 | inconclusive: 112 µM [inhibitor, partial curve, poor fit]
COc1ccccc1-c1nc(C(=O)N2CCCC2)n2ccncc12 | inconclusive: 44.7 µM [inhibitor, partial curve, poor fit]
CCCCCNC(=O)C1CCN(c2nccc(Nc3ccccc3F)n2)CC1 | inconclusive: 31.6 µM [inhibitor, partial curve]
Cc1nn(-c2ccccc2)c2c1C(C)N(C1CCN(C(=O)c3ccccc3F)C1)C2=O (stereo unspecified) | inconclusive: 44.7 µM [inhibitor, partial curve, poor fit]
CC(=O)N1CCC2(C1)OC(=O)Nc1cnccc12 (stereo unspecified) | inactive
CCC1Oc2ccc(NC(=O)C3CCCC3)cc2CN(Cc2ccc(F)cc2)C1=O (stereo unspecified) | inconclusive: 15.8 µM [inhibitor, full curve, poor fit]
COC[C@H]1CCCN1Cc1cn(Cc2ccccc2)nc1-c1cc2ccccc2o1 | inconclusive: 79.4 µM [inhibitor, partial curve, poor fit]
CCC(=O)N1CCc2[nH]nc(C(=O)NCCCc3ccccc3)c2C1 | inconclusive: 35.5 µM [inhibitor, partial curve, poor fit]
O=C(Nc1ncc(-c2ccccc2)c2c1OCC2)c1ccccc1 | inconclusive: 7.94 µM [inhibitor, full curve, poor fit]
COc1ccc(C(=O)N2CCN(c3cc(C(F)(F)F)nc(C)n3)CC2)cc1 | inactive
N#Cc1ccc(C(=O)Nc2ccc([C@H]3OCC(=O)N(Cc4cccnc4)[C@@H]3CO)cc2)cc1 | inconclusive: 10 µM [inhibitor, full curve, poor fit]
Cc1cccc(-c2cccc(CN3CCC(NC(=O)c4ccccc4)CC3)c2)c1 | active: 25.1 µM
CCn1ccc(C(=O)N2CC(c3nc(CCOC)no3)C2)n1 | inactive
COc1cccc(Nc2ncc(-c3c(C)noc3C)c3c2OCC3)c1 | inconclusive: 50.1 µM [inhibitor, partial curve]
FC(F)(F)c1ccc(CN2CC[C@H](c3nc4ccccc4[nH]3)C2)cc1 | active: 28.2 µM
CCC1Oc2ccc(NC(=O)c3c(F)cccc3F)cc2CN(CCc2ccc(F)cc2)C1=O (stereo unspecified) | inconclusive: 31.6 µM [inhibitor, partial curve]
CC(C)(C)C(=O)N1CCCN(c2ccnc3ccnn23)CC1 | inactive
COc1ccccc1Oc1ncccc1CNC1CCCC1 | inactive
COc1cc(NC(=O)c2ccc3c(c2)N(C)C2CCCN2C3=O)cc(OC)c1 (stereo unspecified) | inactive

Compound | Potency
O=C(CCc1nc(C2CCCN2C(=O)c2ccccc2)no1)Nc1ccc(F)cc1F (stereo unspecified) | inconclusive: 22.4 µM [inhibitor, partial curve, poor fit]
COc1ncccc1-c1cc(C(=O)NCCN2CCOCC2)c2c(c1)ncn2C | inconclusive: 79.4 µM [inhibitor, partial curve, poor fit]
Cc1nn(-c2ccccc2)c2c1C(C(C)C)N(C1CN(C(=O)NC(C)C)C1)C2=O (stereo unspecified) | inactive
COc1ccc(CC(=O)NC2CCCN(Cc3ccc(-c4cccc(OC)c4)cc3)C2)cc1 (stereo unspecified) | active: 35.5 µM
COc1ccccc1-c1cn(C)c(=O)n2cc(COc3ccc(C(=O)O)cc3)nc12 | inconclusive: 17.8 µM [inhibitor, full curve, poor fit]
CN(C)c1cccc(NC(=O)Cn2c3c(c(=O)n2Cc2ccccc2)CCN(Cc2ccccc2)C3)c1 | inconclusive: 50.1 µM [inhibitor, single point]
COc1ccc(CCNC(=O)Cc2ccc(N(Cc3ccccc3)C(=O)c3ccco3)cc2)cc1 | inconclusive: 44.7 µM [inhibitor, partial curve, poor fit]
Cc1cccc(-c2noc([C@@H]3Cc4nc[nH]c4CN3C(=O)Nc3cccc(C#N)c3)n2)c1 | active: 63.1 µM
COc1ccccc1-c1nc2nccc(-c3cc(OC)c(OC)c(OC)c3)n2n1 | inconclusive: 50.1 µM [inhibitor, partial curve, poor fit]
COCCNC(=O)c1ccc(-c2ccc(OC)nn2)cc1 | inactive
O=C(NCC1CN(Cc2ccccn2)CC12CN(c1ccccc1)C2)c1ccccc1 (stereo unspecified) | inconclusive: 100 µM [inhibitor, partial curve, poor fit]
CCNC(=O)N[C@H]1C[C@@H](Cc2cc(COc3ccccc3)on2)C1(C)C | inconclusive: 89.1 µM [inhibitor, partial curve]
COCCNC(=O)c1cc(-c2ccc(C)nc2)cc2ncn(C)c12 | inconclusive: 50.1 µM [inhibitor, partial curve, poor fit]
CC(C)(C)OCC1CN(Cc2ccccc2)[S+](=O)([O-])c2cccnc2O1 (stereo unspecified) | inconclusive: 20 µM [inhibitor, partial curve, poor fit]
Cc1ccc(NC(=O)Cn2c(C)cc3nc4n(c(=O)c32)CCC4)c(C)c1 | inconclusive: 70.8 µM [inhibitor, partial curve, poor fit]
COc1ccc(NC(=O)C2(C)CCCc3cnc(Nc4cccnc4)nc32)cc1 (stereo unspecified) | active: 35.5 µM
Cc1ccc(-c2nnc3ccc(C(=O)NCc4ccccc4F)cn23)cc1 | inconclusive: 50.1 µM [inhibitor, partial curve, poor fit]
CCCn1cc2c3c(cccc31)CN(C(=O)COc1ccccc1)CC2 | inconclusive: 44.7 µM [inhibitor, partial curve, poor fit]
CN(Cc1ccccc1)Cc1nnc(C(=O)N2CCC[C@@H]2c2cccc(F)c2)n1-c1ccccc1 | inconclusive: 50.1 µM [inhibitor, partial curve, poor fit]
O=C(Nc1ncc(-c2ccccc2)c2c1OCC2)c1cn[nH]c1 | inconclusive: 100 µM [inhibitor, partial curve, poor fit]
O=C1Nc2ccccc2CC12CCN(Cc1ccccc1C(F)(F)F)C2 (stereo unspecified) | inconclusive: 50.1 µM [inhibitor, partial curve, poor fit]

Compound | Potency
Cc1cc(=O)n(CC(=O)Nc2ccc(C)c(F)c2)c(N(C)Cc2ccccc2)n1 | inconclusive: 50.1 µM [inhibitor, partial curve, poor fit]
O=C(c1ccc(C(F)(F)F)cc1)N1CCn2c(nn(-c3ccc(F)cc3F)c2=O)C1 | inactive
COc1ccccc1N1CCN([C@H]2[C@@H]3OC[C@@H](O3)[C@@H](NCc3ccc(-c4ccccc4)cc3)[C@@H]2O)CC1 | inconclusive: 50.1 µM [inhibitor, single point]
Cc1nn2c(c1-c1ccccc1-c1ccccc1)N(CC1CC1)CCC2 | active: 3.16 µM
O=C(Nc1ccc(F)cc1)c1cc2n(n1)CC(c1ccc(Br)cc1)OC2 (stereo unspecified) | inconclusive: 50.1 µM [inhibitor, partial curve, poor fit]
COc1ccc(CN2C(=O)[C@@H]3C[C@@H](CN3Cc3ccccc3)Oc3ccccc32)cc1 | inconclusive: 44.7 µM [inhibitor, full curve, poor fit]
O=C(NCc1ccc(C(F)(F)F)cc1)C1CCN(Cc2ccccc2-c2cccnc2)CC1 | inconclusive: 44.7 µM [inhibitor, partial curve, poor fit]
Cc1ccc(-c2ccccc2C=O)c(C)c1 | inconclusive: 141 µM [inhibitor, partial curve, poor fit]
O=C(Nc1ccncc1)c1ccnc(-c2nnc3ccc(N4CCOCC4)nn23)c1 | active: 89.1 µM
c1ccc(CCCN2CC[C@H](c3nc4ccccc4s3)C2)cc1 | active: 89.1 µM
O=C(NC1CCCCC1)N1C2CCC1CN(c1ccc(C(F)(F)F)cc1)C2 | inconclusive: 11.2 µM [inhibitor, full curve, poor fit]
O=C(NCc1ccc2c(c1)OCO2)c1ccc2nnc(-c3cc(F)ccc3F)n2c1 | inconclusive: 50.1 µM [inhibitor, partial curve, poor fit]
c1cnc2nc(-c3c[nH]c4ncccc34)[nH]c2c1 | inconclusive: 56.2 µM [inhibitor, full curve, poor fit] and inconclusive: 56.2 µM [inhibitor, full curve]
CC(=O)Nc1cc(-c2cc(C(=O)NCc3cc(C)on3)c3c(c2)N(C)CCO3)ccn1 | inconclusive: 56.2 µM [inhibitor, partial curve, poor fit]
COc1ccc(CN2CCCC23Cc2ccccc2N(C(=O)c2ccc(Cl)cc2)C3)cc1 (stereo unspecified) | inconclusive: 28.2 µM [inhibitor, full curve]
c1ccc(CCN2CCNc3cc(N4CCN(c5ccccn5)CC4)ncc3C2)cc1 | active: 28.2 µM
Cc1nc(NC(C)c2nc(-c3cccnc3)no2)c2cccnc2n1 (stereo unspecified) | inconclusive: 10 µM [inhibitor, full curve, poor fit]
O=C(NCCc1ccccc1)C1CCc2ncc(-c3ccsc3)n2C1 (stereo unspecified) | inconclusive: 50.1 µM [inhibitor, partial curve, poor fit]
Cc1cc(C(=O)N2CC(=O)N(C3CCCCC3)CC(OCc3ccccc3)C2)n(C)n1 (stereo unspecified) | inactive
